From PubChem BioAssay AID488969 (Vanderbilt High Throughput Screening Facility, 2010)
In all, about 110,000 compounds were measured (“z-score”: median about -0.1, highest 2% from about 2 on). The list shows a part of the results.

Biological target: Metabotropic glutamate receptor 8 (Rattus norvegicus) (UniProt P70579)
Test: mGluR8 Gi/Go-coupled signaling modulation – cell-based, rat, thallium flux, HTS, primary screen (AID 488969)
Conditions: HEK293 rat mGluR8, GIRK (G protein-gated inwardly rectifying potassium channel) thallium flux, FluoZin2; at 10 µM; stronger effect = higher value; submaximal glutamate (EC20) added with thallium

Chain of UniProt P70579 (P70579 whole entry, looked up): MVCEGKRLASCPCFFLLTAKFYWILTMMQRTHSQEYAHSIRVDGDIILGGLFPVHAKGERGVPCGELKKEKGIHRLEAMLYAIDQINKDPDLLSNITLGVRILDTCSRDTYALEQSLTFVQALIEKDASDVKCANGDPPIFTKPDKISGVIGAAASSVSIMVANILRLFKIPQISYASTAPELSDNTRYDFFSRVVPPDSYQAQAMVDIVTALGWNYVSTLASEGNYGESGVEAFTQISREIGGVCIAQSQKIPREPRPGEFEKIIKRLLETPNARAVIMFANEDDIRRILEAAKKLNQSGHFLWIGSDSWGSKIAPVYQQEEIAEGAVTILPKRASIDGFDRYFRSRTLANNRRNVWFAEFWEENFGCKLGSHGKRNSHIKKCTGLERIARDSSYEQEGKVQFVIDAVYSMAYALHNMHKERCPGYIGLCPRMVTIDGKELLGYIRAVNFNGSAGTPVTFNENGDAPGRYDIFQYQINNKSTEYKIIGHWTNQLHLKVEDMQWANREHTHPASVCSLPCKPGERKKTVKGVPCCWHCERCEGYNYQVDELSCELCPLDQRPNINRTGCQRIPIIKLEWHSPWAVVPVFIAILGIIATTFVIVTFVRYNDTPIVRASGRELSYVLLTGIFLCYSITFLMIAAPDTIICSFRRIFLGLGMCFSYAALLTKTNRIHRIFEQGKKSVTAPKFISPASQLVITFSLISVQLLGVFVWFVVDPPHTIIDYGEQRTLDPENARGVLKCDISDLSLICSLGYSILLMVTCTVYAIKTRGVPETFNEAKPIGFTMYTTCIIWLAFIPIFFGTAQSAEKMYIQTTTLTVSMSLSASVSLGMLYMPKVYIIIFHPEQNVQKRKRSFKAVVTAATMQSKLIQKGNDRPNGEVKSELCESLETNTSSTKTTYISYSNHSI

In order of falling z-score:
1. O=C(CN1CCOCC1)Nc1ccc(Oc2ccccc2)cc1  1.91
2. CCOC(=O)Cc1nnc(NC(=O)CSc2nncn2C)s1  0.788
3. CS(=O)(=O)N(CC(=O)Nc1cccnc1)c1ccc2c(c1)OCO2  0.76
4. CCOC(=O)N1CCN(c2nc(-c3ccco3)cc(C(F)(F)F)n2)CC1  0.625
5. c1ccc(-c2oc3ncnc(NCCCn4ccnc4)c3c2-c2ccccc2)cc1  0.609
6. Cc1ccc(NC(=O)Nc2sc(=S)n(C)c2C)cc1  0.6
7. CCn1c(SCC(=O)NCCc2ccccc2)nnc1-c1cccs1  0.562
8. CCc1ccc(/C=C(\Cl)c2nc3cc(Cl)ccc3c(=O)[nH]2)cc1  0.511
9. O=C(C1CCN(Cc2ccc(Cl)cc2)CC1)N1CCN(C(c2ccccc2)c2ccccc2)CC1  0.432
10. CCc1ccc(C(=O)NC(C(=O)O)C(C)C)cc1 (stereo not given)  0.403
11. CCOCCCNC(=O)c1ccc2c(c1)OCO2  0.309
12. O=C(CCS(=O)(=O)Cc1ccccc1)N1CCN(c2ccccc2)CC1  0.228
13. O=C(Nc1ccccc1N1CCN(c2ccc(F)cc2)CC1)C1CCCCC1  0.216
14. CCN(CC)CCCN(Cc1cc2cc(OC)c(OC)cc2[nH]c1=O)C(=O)Nc1ccccc1  0.204
15. CCC(=O)Nc1ccc(N2CCC(C)CC2)cc1  0.203
16. OC(CN1CCN(Cc2ccc3c(c2)OCO3)CC1)c1c[nH]c2ccccc12 (stereo not given)  0.203
17. Cc1ccc(CN(C(=O)c2cc(=O)c3cc(Cl)c(C)cc3o2)C2CCS(=O)(=O)C2)cc1 (stereo not given)  0.162
18. N/C(=N\OC(=O)Cc1ccc(-c2ccccc2)cc1)c1ccccn1  0.151
19. O=C(O)c1cccc(-c2nnn(Cc3ccccc3Cl)n2)c1  0.145
20. O=C1C(=O)N(CCN2CCOCC2)C(c2ccccn2)/C1=C(/O)c1ccccc1 (stereo not given)  0.139
21. COc1ccc(N2CC(O)=C(c3nc(C)cs3)C2=N)cc1  0.128
22. COc1ccc2[nH]c(C)c(C(=O)CN3CCOCC3)c2c1  0.0884
23. CCOc1ccc(C(c2c(C)[nH][nH]c2=O)c2c(C)[nH][nH]c2=O)cc1OCC  0.0251
24. Cc1ccc(OCCCC(=O)N2CCOCC2)cc1  -0.00866
25. CCCCc1nc2ccccc2c(NC(=O)CNC(C)(C)C)c1CCC  -0.0211
26. O=C(COC(=O)c1cc[n+]([O-])cc1)Nc1ccc2c(c1)OCCO2  -0.0257
27. Cc1[nH]c2ccccc2c1C(=O)/C=C/c1ccccc1Cl  -0.0344
28. CCSc1nc(O)c(Cc2ccccc2)c(=O)[nH]1  -0.0379
29. COc1ccc(C2CC(c3ccc(C)o3)=NN2C(C)=O)cc1 (stereo not given)  -0.0426
30. Cc1nc(Oc2ccccc2)c2ccccc2n1  -0.0898
31. C/C(=N\Nc1ccc([N+](=O)[O-])cc1[N+](=O)[O-])C(C)(C)C(C(=O)O)C(=O)O  -0.127
32. CCOC(=O)c1nnc2ccnn2c1N  -0.132
33. CN=C1NN=C(c2cc(C)n(-c3c(C)n(C)n(-c4ccccc4)c3=O)c2C)CS1  -0.133
34. COc1ccc(C(=O)NCc2ccc3c(c2)OCO3)cc1S(=O)(=O)N(C)Cc1ccccc1  -0.143
35. CC12CCC(C(=O)N3CCCc4ccccc43)(OC1=O)C2(C)C (stereo not given)  -0.143
36. CCOc1ccc2nc(NC(=O)CSc3nc(SC)ns3)sc2c1  -0.147
37. CC(=O)NCCn1c(SCC(=O)NCCC(C)C)nc2ccccc2c1=O  -0.154
38. COc1ccc(/C=C(/C#N)C(=O)Nc2cccc(C)c2C)cc1C(=O)O  -0.158
39. Cc1oncc1C(=O)NC(C)C  -0.192
40. COc1ccc(S(=O)(=O)N2Cc3ccccc3CC2C(=O)Nc2nccs2)cc1 (stereo not given)  -0.194
41. COC(=O)c1nn(-c2ccc(OC)cc2)c(=O)cc1Oc1cccc(Cl)c1  -0.228
42. COc1ccc(C2C(C(=O)NCc3cccnc3)c3ccccc3C(=O)N2C)cc1OC (stereo not given)  -0.235
43. CC(C)OC(=O)c1cc2c(ccn2C)n1CC(=O)N(Cc1ccccc1)c1ccccc1  -0.243
44. Cc1c(Cl)c(-c2n[nH]c(=S)n2Cc2ccco2)nn1C  -0.274
45. O=C(N/N=C/c1cc(Cl)ccc1O)C(=O)Nc1ccccc1OC(F)(F)C(F)F  -0.276
46. O=C(NC1CCCC1)C(c1ccsc1)N(Cc1ccco1)C(=O)Cc1cccs1 (stereo not given)  -0.352
47. NC(=O)c1ccccc1NC(=O)Nc1cccc(Cl)c1  -0.363
48. Cc1cccc(C)c1OCC(=O)Nc1oc(-c2ccccc2)c(-c2ccccc2)c1C#N  -0.376
49. CCCOc1ccc(C(=O)N2CCCc3ccccc32)cc1  -0.388
50. Cc1ccc(-n2c(Cl)c(Cl)[nH]c(=O)c2=O)cc1  -0.709
51. COc1ccc2cc(C(=O)c3ccccc3)c(=O)oc2c1  -0.83
52. O=C(NCc1ccccc1F)C1CCCN1C(=O)NC1CCCCC1 (stereo not given)  -0.968
53. O=C(CN1C(=O)c2ccccc2S1(=O)=O)Nc1ccc(S(=O)(=O)N2CCCCC2)cc1  -1.11
54. CCn1c(CC(=O)Nc2cccc(OC)c2)nnc1SCC(=O)N1CCN(c2ccccc2)CC1  -1.27
55. CCOc1nnc(C)c2c(C)n(-c3cccc(Cl)c3)nc12  -1.49
